Among the data in article PMC10726135 are binding signal (log2 normalized intensity) values, retold here.

This is one part of the list. At the low end of the ranking the order means little. The protein was read in a cell extract, so binding may be indirect.

The target of the test is T1, HNF4alpha2 (COS-7 nuclear extract) (UniProt P41235).
T1 sequence: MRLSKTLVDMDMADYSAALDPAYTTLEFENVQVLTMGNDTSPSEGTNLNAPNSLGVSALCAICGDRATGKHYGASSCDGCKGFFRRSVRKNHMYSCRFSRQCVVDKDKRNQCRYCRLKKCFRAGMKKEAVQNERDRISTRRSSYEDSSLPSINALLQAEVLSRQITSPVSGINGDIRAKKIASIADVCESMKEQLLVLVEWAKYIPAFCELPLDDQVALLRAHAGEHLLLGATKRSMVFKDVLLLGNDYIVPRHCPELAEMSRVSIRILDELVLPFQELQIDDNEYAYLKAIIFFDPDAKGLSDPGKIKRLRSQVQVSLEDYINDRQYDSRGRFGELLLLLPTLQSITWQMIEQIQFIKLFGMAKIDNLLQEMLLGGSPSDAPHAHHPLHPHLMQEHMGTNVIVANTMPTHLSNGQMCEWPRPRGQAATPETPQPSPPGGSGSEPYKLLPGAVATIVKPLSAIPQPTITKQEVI
Put plainly: protein-binding microarray. Conditions: COS-7 nuclear extract on double-stranded Agilent 4x180k PBM; binding buffer, salt, pH and temperature not given; high values mean tight binding; double strand, one strand shown; sequences stand for … in …GCCTAGGGAGATTAGAGTATCGGTCGA
Consider AAAGGTCAGGAATCGCATTGCAAAATCCAT, for which the binding signal (log2 normalized intensity) is -1.07.
Turning to AATAAATGTCATTTAAGACGAGTGGTTTGA, the binding signal (log2 normalized intensity) amounted to 0.537.
For the sequence CTCCAAATTCCAGGATCCAAGATCCAACTC, the binding signal (log2 normalized intensity) is -1.24.
In the case of GGGGCTGCTGGCATCTCATTACTGACAGAG it was -1.26.
Regarding ACCTCTGTCCTTGGCCTCACAGACAGATAG, the binding signal (log2 normalized intensity) was -1.12.
Regarding TGTTTATCCTGCCTCCATTAATTAACCTTT, the binding signal (log2 normalized intensity) worked out at 4.68.
With ACTCAGTTGAAGTTCCAGAAGACTACAAAT, the binding signal (log2 normalized intensity) is -1.14.
In the case of TTGCCCTGTGGTCTAGCTTGTTCTCTCCCC it was 2.4; in that of TAAGACTATCTCATGACAGACCTAAGAACT, -1.16.
On to AAGCAGCATTAGCCTCTATGTCAGGCCATT, for which the binding signal (log2 normalized intensity) is -1.16.
As for GCCCAGAGCCAGGTGTGCTGAGGAAACTGA, the figure is -0.977; as for AAAGTTTCCTCTCCTGCCCTACTCCCTTAA, 2.68.
In the case of CTTGCTTTGTCACCCAGGCTGAAGTCCAGT, the binding signal (log2 normalized intensity) was 2.13.
In the case of TCACAATGGGCCCCAGTAAAAACAGTGGGC it was -1.01.
As for GCTGACAGCAGAGAGTTTTCCTTGGCTGTG, the figure is -1.05; as for GAGGCACAGTCTGCTTTCAGAGATGATAAG, -0.926; as for TATTTCAAGAATGCAAAGCCCTGGCTGACC, 0.797.
As for GTATCCCTTGCTCAACTCCCTCTGAAGGGA, the figure is -1.22; as for AGCCTCACCAACAGGATTGTGAAACGTTTG, 0.703.
Consider AAAAAGCCTGAGCATCTTATCAGCAGGAGA, for which the binding signal (log2 normalized intensity) is -1.15.
On to TGGACTTTGGAATTAAGGAGATTTGGCTTT, for which the binding signal (log2 normalized intensity) was 4.84.
In the case of AGGCAGTGTCACAGAAATCATGTAGCCAGA it was -1.16; in that of AAGTGTTTAACTCTTTATCTTTCTCCTACA, -1.06; in that of TATCAGCAGGAGGAGGAGCCAGTGAAGACT, -1.01.
In the case of CTGTCTGCCATGGGCCTGGCTGAGCCTGGG, the binding signal (log2 normalized intensity) was -1.12.
As for TTGTTTGTTTTGAGGGTTAAAGGAGATAAT, the figure is 2.03; as for CAGAAAGGCAAGAAGTATGACAACAAAGCA, -1.05.
On to TTTGAAACATAACAGCAACAACACAGATCA, for which the binding signal (log2 normalized intensity) was -1.2.
As for TCTTGGCTTCAAAGGTCACTGTCCTAATTT, the figure is 3.85; as for AAAAAACACTCTCAATCTTTGCCCTCTTGG, 2.88.
In the case of GCTGGAGGGCAAAGGTCAGAGGCTGATTTC it was 6.
As for AACCCCACACCTCCCTTGCACCAGTTTCTC, the figure is 2.3; as for TACCACCGTATTCCTAGCTCCTAGCACGTT, -1.17; as for AAAAGCTTATCTGCACAATGAAACTTGGTC, 0.73.
Turning to CAGAGGGGTTCCTCAGTAAATGCTGGAGAT, the binding signal (log2 normalized intensity) was -0.273.
For GGAGGCATTCCTGCAATCAGAGCTGGATGT, the binding signal (log2 normalized intensity) was -0.787.
As for GGCGACGGACGCGCCGCGCCGGGGAAGCTG, the figure is -1.07.
On to TGGTGAAAGGAGGAATCTGTGAAGGTCAGG, for which the binding signal (log2 normalized intensity) came to 1.21.
As to ATGTCTGTAGGTAAGCACAAAGTACAGCTT, the binding signal (log2 normalized intensity) was 1.15.
GAGCTGGGTGGCCCTCTCCCGGGGAGGTCA: the binding signal (log2 normalized intensity) was found to be 1.97.
In the case of CCAGAATTGCTTTACGAAGTGTTTGTCAAG it was 1.42; in that of CCACACCGAGATAGTAGAGATAGTGATCAA, -0.994; in that of GAAAACATCATTCCGTGACTGAGCTCGCGC, -0.72.
In the case of AAAGACCTTGCTGATAAAACAGCATGCGGT it was -1.01.
In the case of AGGGGGATTACCTAAACAGCAACTGTAGTG it was -1.12; in that of CCACCCCTCCTCCTGGGGGCTTTTGTTTAG, 1.46.
Consider ATGTCAGGAGCCCCACTGTAGTAAGGGAGT, for which the binding signal (log2 normalized intensity) is -0.326.
With AGTTGATTGCACCCTTCCCTAAGATTTATC, the binding signal (log2 normalized intensity) was 1.02.
As for AGGCCATCCCAGTTACTCAGCGAATACCAA, the figure is -1.18; as for GATTACGTGTTCCCAGGATGAGGCCGTTCT, 1.32.
In the case of TGTGTACCTCATCTTCTTTCCTGGTGCCTC, the binding signal (log2 normalized intensity) was 1.39.
As for CGCCTGACCTGGCCCCTGAGGGTGCTGAGC, the figure is -0.901.
As for TCATTCCCCTAGTATATTGGCTTGGCTGTG, the figure is 2.58.
For AGCCTGCAGCACCTTGATGCTGGACTTCAG, the binding signal (log2 normalized intensity) came out at 2.61.
As for GTTCTCTCCGGGTAAAGGTGAAGGCTGACC, the figure is 1.43; as for ACAGTCTTGGGCACAAAGTACAAAAGAGGC, 1.44.
For TTCAAGGGCCACTCAGTTGAAGTTCCAGAA, the binding signal (log2 normalized intensity) was found to be 0.0749.
As for AGAAGAAAAGAGTTGCTCAAACCAACATTA, the figure is -1.16; as for AACCTAGGAAATCAAAAACCATTTGACAAT, -1.2.
As for GAAGGAGCACCAATGACCTTTGACCCTTCT, the figure is 11.1; as for AAGAAAAAACAGGTGTTCTTTCCCTCCAGC, -1.11; as for TGGACAGGGGTGTGTTGACCGATAACCCTC, 2.25.
Consider TAGCCTGAAAATGTTTGCCGACCTCCTGAC, for which the binding signal (log2 normalized intensity) stood at 0.363.
In the case of CTGGCAGAGGAAAAAGTCCCTGGTCCCATA it was -1.13; in that of TCCAGAACCAAGATTTACATCCTATCCTGG, -0.71; in that of AACAGCACTTGTGCAGTTTTTCTGCCGAAG, -1.1.
Consider ACGTTGTACCCCACAGGTATTCTTTCATCC, for which the binding signal (log2 normalized intensity) is 1.35.
As for GACCAACAGAGAAGGCCCTGAACTCCCAGC, the figure is -1.18.
Take GGGAAAACTGATAAAGGGTGAGTGCATGAA: the binding signal (log2 normalized intensity) is -1.06.
With GAAGGAATGTAAACTCCAAGGAGCAAATCC, the binding signal (log2 normalized intensity) is -1.06.
As for CTAGGAGATACGCCTGAACTTTGATCAGCA, the figure is 5.59; as for GGAATGCCCTTATCTCCCAGCCACCAAATC, 2.35; as for GGGGCCTTTAGCACCTTCATCCAAAGATGA, -1.15.
